Measurements from PubChem BioAssay AID686978 (National Center for Advancing Translational Sciences (NCATS), 2013).
“And” between values parts separate entries of the source, which are not always exact repeats. Identical values can stand only once. About 64,000 (15%) of roughly 420,000 compounds were called active. This list was built around the results that the source calls inconclusive (neither active nor inactive); the mix of calls is not that of the screen. Calls come from the whole dose curve; as a rule, active = well fitted inhibition curve with a large enough effect; inconclusive = small, poorly fitted or top-dose-only effect; inactive = flat fitted curve, though single readings scatter. Potencies beside an inconclusive call are fits to weak or partial responses and may not hold up.

Assay: qHTS for Inhibitors of human tyrosyl-DNA phosphodiesterase 1 (TDP1): qHTS in cells in absence of CPT; note: nearly all actives have a fitted effect of over 55% in size
Conditions: DT40 Tdp1-/- hTDP1 cells, no CPT, ATP luminescence, 48 h; series mostly up to 46.2 µM
Summary of the method: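 Cells were dispensed at 400 per well, compounds added by pin tool, plates incubated ≥48 hr at 37 °C, then CellTiter-Glo added for 30 min at room temperature before luminescence reading. Line: DT40 Tdp1-/- complemented with hTDP1; camptothecin omitted.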
Potency is the fitted concentration of half-maximal effect; tags give direction and shape of the fitted curve.

| Compound | Potency |
| --- | --- |
| O=C(NCCc1ccccc1)c1ccc(OCCOc2ccccc2)cc1 | inactive |
| Cc1cccc(CN2CCN(C3CN(Cc4ccc(F)cc4)S(=O)(=O)C3)CC2)c1 (stereo not drawn) | inconclusive: 29.1 µM [inhibitor, single point] |
| O=S(=O)(NCc1ccco1)c1ccc(Cl)nc1 | inactive |
| Cc1cccc(C)c1OCC(=O)Nc1ccccc1N1CCCCC1 | inconclusive: 29.1 µM [inhibitor, single point] |
| COc1ccc(CN2CCc3c(c(=O)n4ncc(C(=O)N5CCN(c6ccccc6F)CC5)c4n3C)C2)cc1 | active: 8.2 µM |
| O=C(c1ccc2c(c1)OCCO2)C1CCN(C(=O)Nc2ccc(F)cc2)CC1 | active: 18.4 µM |
| Cc1cc(C)cc(NS(=O)(=O)c2ccc3[nH]c(=O)[nH]c3c2)c1 | inconclusive: 29.1 µM [inhibitor, single point] |
| COc1cc(CNc2ccc3[nH]c(=O)[nH]c3c2)ccc1OCc1ccc(F)cc1Cl | inconclusive: 6.51 µM [inhibitor, partial curve] and inconclusive: 20.6 µM [inhibitor, single point] |
| COc1cc(CNc2ncc(-c3ccc(Cl)cc3)n2C)cc(OC)c1OC | active: 2.06 µM |
| CC1CC(C)CN(C(C(=O)NC2CCCCC2)c2ccnc3ccccc23)C1 (stereo not drawn) | inconclusive: 25.9 µM [inhibitor, single point] |
| COC(=O)C[C@H]1c2cc(C(F)(F)F)ccc2S(=O)(=O)N1Cc1ccccc1 | inactive and inconclusive: 35.5 µM [inhibitor, single point] |
| CC(=O)N1CCN(C(=O)c2ccc(-c3ccccc3Cl)o2)CC1 | inactive |
| O=C(OCCCc1cc2ccccc2c(=O)o1)N1CCOCC1 | inconclusive: 4.11 µM [inhibitor, partial curve, poor fit] |
| Cc1ccc(S(=O)(=O)N2CCN(C(=O)c3c(-c4ccccc4)noc3C)CC2)cc1 | inconclusive: 29.1 µM [inhibitor, single point] |
| CCOC(=O)C1C(=O)C=C(c2ccccc2)CC1c1ccccc1 (stereo not drawn) | inconclusive: 14.6 µM [inhibitor, partial curve] |
| COc1ccc(Cn2ccc3nc(C)c(C(=O)N4CCN(c5cccc(OC)c5)CC4)cc3c2=O)cc1 | inconclusive: 23.1 µM [inhibitor, single point] |
| CCCCC1CCC(C(=O)N2CC(=O)Nc3ccc(C)cc3C2c2ccc(F)cc2)CC1 (stereo not drawn) | inconclusive: 29.1 µM [inhibitor, single point] |
| COc1ccc(NC(=O)c2c(NC(=O)C(F)(F)F)sc3c2CCCCC3)cc1 | active: 18.4 µM |
| O=C(Nc1ccc(Br)cc1)c1csc(-c2ccncc2)n1 | inconclusive: 20.6 µM [inhibitor, partial curve] |
| CS(=O)(=O)N(Cc1ccccc1)c1ccc(C(=O)Nc2cccc(Cl)c2)cc1 | active: 14.6 µM |
| COc1cc2c(cc1OC)C(C)N(C(=O)c1cc(Cl)nc(Cl)c1)CC2 (stereo not drawn) | inconclusive: 7.31 µM [inhibitor, partial curve] |
| O=C(Nc1nc2n(n1)C(c1ccccc1)C=C(c1ccccc1)N2)c1ccco1 (stereo not drawn) | inactive |
| COc1ccccc1CNC(=O)CCc1cn(C)c2ccccc12 | inconclusive: 18.4 µM [inhibitor, partial curve] |
| O=C(O)COCC(=O)N1CCc2c([nH]c3ccccc23)C1C(F)(F)F (stereo not drawn) | inactive |
| Cc1cccc(N2CCN(C(=O)c3nn(C)c4c3CS(=O)(=O)c3ccccc3-4)CC2)c1C | active: 14.6 µM and active: 16.4 µM |

| Compound | Potency |
| --- | --- |
| CC(C)c1cc(NCc2ccccn2)n2c(nc3ccccc32)c1C#N | active: 11.6 µM |
| CNC(=O)c1ccsc1NC(=O)c1ccc(S(=O)(=O)N2CCCc3ccccc32)cc1 | active: 20.6 µM |
| COc1ccccc1-c1cnc(C(O)c2ccc(Cl)cc2)[nH]1 (stereo not drawn) | inactive |
| CC(C)NC(=O)c1csc(COCCO)n1 | inactive |
| COc1ccc(C)cc1CN(C)c1ccc(S(=O)(=O)N2CCN(C)CC2)cn1 | inconclusive: 29.1 µM [inhibitor, single point] |
| NC(=O)N/N=C/c1ccc(-c2ccc([N+](=O)[O-])cc2)o1 | inconclusive: 6.51 µM [inhibitor, partial curve] |
| COc1cc2sc3ccc(C#Cc4ccc(N)cc4)cc3c(=O)c2cc1OC | inconclusive: 11.6 µM [inhibitor, single point] |
| Cc1[nH]nc(N2CCCCCC2)c1[N+](=O)[O-] | inactive |
| O=C(Nc1cccc(C(F)(F)F)c1)Nc1nnc(N2CCCCCC2)s1 | active: 5.8 µM |
| COC(=O)Nc1sc2c(c1C(=O)NCc1ccco1)CCCC2 | inactive |
| COc1cc(C2C3=C(CCCC3=O)Nc3[nH]n(-c4ccccc4)c(=O)c32)ccc1OC(C)=O (stereo not drawn) | inactive |
| COc1cccc(-c2nc(CS(=O)(=O)CC(=O)N3CCN(c4ccccn4)CC3)c(C)o2)c1 | inconclusive: 29.1 µM [inhibitor, single point] |
| COc1ccccc1-n1cc(-c2ccccc2)[nH]c1=S | inconclusive: 20.6 µM [inhibitor, single point] |
| COc1ccccc1N1CCN(C(=O)c2cc(-c3ccc(C)c(F)c3)on2)CC1 | inconclusive: 16.4 µM [inhibitor, partial curve] |
| NS(=O)(=O)c1ccc(NC(=S)N2CCN(Cc3ccc4c(c3)OCO4)CC2)cc1 | inconclusive: 18.4 µM [inhibitor, single point] |
| COc1cc2cnc(-c3ccccc3)c(-c3cc(OC)c(OC)c(OC)c3)c2cc1OC | active: 13 µM |
| Clc1cccc(Cc2c(-c3ccccc3)nc3c4ccccc4ccn23)c1 | active: 13 µM |
| O=C(Nc1ccccc1Cl)ON=C1c2ccccc2-c2ccccc21 | inconclusive: 16.4 µM [inhibitor, single point] |
| Nc1nc(SCC(=O)Nc2cccc(S(=O)(=O)N3CCCCCC3)c2)n[nH]1 | inactive |
| C[C@H](NC(=O)c1ccccc1)C(=O)N1CCN(Cc2ccc3c(c2)OCO3)CC1 | inactive |
| CCN(CC(=O)Nc1ccc2c(c1)OCCO2)Cc1nc2cc(Cl)ccc2c(=O)[nH]1 | inconclusive: 29.1 µM [inhibitor, single point] |
| O=C(CSc1nnc(-c2cccs2)n1Cc1ccco1)c1ccc2c(c1)OCO2 | inconclusive: 23.1 µM [inhibitor, single point] |
| C=C[C@](C)(O)CCC=C(C)C | inactive |
| O=S(=O)(Nc1nc(-c2ccccc2)cs1)c1cc(Cl)ccc1Cl | inactive |
| Cn1c(=O)c2[nH]c(CCCCCc3nc4ccccc4[nH]3)nc2n(C)c1=O | inactive |

| Compound | Potency |
| --- | --- |
| CCC(=O)N(CCCN(C)C)c1nc(-c2cc(OC)ccc2OC)cs1 | inactive |
| CCOC(=O)C1CCN(Cc2ccc(Cl)c(Cl)c2)CC1 | inactive |
| Cc1cc2nc(SC(C)C(=O)O)[nH]c2cc1C (stereo not drawn) | inconclusive: 29.1 µM [inhibitor, single point] |
| NC(=O)c1sc(-c2ccsc2)cc1NS(=O)(=O)c1ccc(C(F)(F)F)cc1 | inconclusive: 18.4 µM [inhibitor, single point] |
| CCN(CC)CCNC(=O)C(=O)Nc1c2c(nn1-c1ccc(F)cc1)CSC2 | inactive |
| COc1ccc(C(=O)N2CCC3(CCCN(Cc4ccncc4)C3)CC2)cc1 | inconclusive: 23.1 µM [inhibitor, single point] |
| CN(C)c1ccc(CN(C(=O)C2COc3ccccc3O2)C2CCS(=O)(=O)C2)cc1 (stereo not drawn) | inactive |
| Nc1ccc(-c2nc(-c3ccccc3)nc3ccccc23)cc1 | inactive |
| CCCCN1CC(c2nc3ccccc3n2CCCCOc2cc(C)cc(C)c2)CC1=O (stereo not drawn) | active: 7.31 µM |
| COc1cc2oc(=O)cc(-c3ccc(-c4ccc(N(C)C)cc4)cc3)c2c(OC)c1OC | inconclusive: 20.6 µM [inhibitor, partial curve] |
| CCOC(=O)C(Cc1ccc(O)c([N+](=O)[O-])c1)N1C(=O)c2ccccc2C1=O (stereo not drawn) | inconclusive: 14.6 µM [inhibitor, partial curve, poor fit] |
| CC1(C(=O)NCc2ccccc2)Cc2c(-c3cccc(C(N)=O)c3)ccnc2O1 (stereo not drawn) | active: 2.31 µM |
| COc1ccccc1Cn1c(C)nc2ccccc21 | inconclusive: 25.9 µM [inhibitor, single point] |
| COc1ccccc1CNc1nc(C)c(C(C)=O)s1 | active: 16.4 µM |
| CCOc1ccccc1NC(=O)CSc1ccccc1 | inconclusive: 29.1 µM [inhibitor, single point] |
| CCOc1ccccc1C1NC(=O)NC(C)=C1C(=O)OC1CCCC1C (stereo not drawn) | inconclusive: 23.1 µM [inhibitor, partial curve] |
| Cc1ccc(-c2noc(=O)n2CC(=O)c2ccc(Cl)cc2)cc1 | inconclusive: 29.1 µM [inhibitor, single point] |
| Cc1c(NC(=O)C(C)OC(=O)/C=C/c2ccccc2)c(=O)n(-c2ccccc2)n1C (stereo not drawn) | inactive |
| O=C(NNC(=O)c1cc(-c2ccccc2)nc2ccccc12)Nc1cccc(Cl)c1 | active: 20.6 µM |
| COc1cc(-c2nc3ccccn3c2NCc2ccccc2)ccc1SC1CCCCC1 | inconclusive: 18.4 µM [inhibitor, single point] |
| Cc1ccc2ccc(C(Nc3cccc(C(F)(F)F)c3)c3cccnc3)c(O)c2n1 (stereo not drawn) | inconclusive: 25.9 µM [inhibitor, single point] |
| CC(C)(C)C1CCC(OC(=O)C[N+]2(C)CCCC2)CC1 (stereo not drawn) | active: 5.17 µM |
| Cc1cccc(NC(=O)CSc2nc3ccc(NC(=O)COc4ccccc4C)cc3s2)c1 | active: 16.4 µM |
